Whole data set: some 1,800 sequences, median “median log2 fold change of GCK-ALFA target abundance (FLAG IP / Myc IP barcode read proportion)” near 0.14, cut for the lowest 2% near -0.84. This is one part of the list.
T1: TRAF2, Q12933
T1 chain: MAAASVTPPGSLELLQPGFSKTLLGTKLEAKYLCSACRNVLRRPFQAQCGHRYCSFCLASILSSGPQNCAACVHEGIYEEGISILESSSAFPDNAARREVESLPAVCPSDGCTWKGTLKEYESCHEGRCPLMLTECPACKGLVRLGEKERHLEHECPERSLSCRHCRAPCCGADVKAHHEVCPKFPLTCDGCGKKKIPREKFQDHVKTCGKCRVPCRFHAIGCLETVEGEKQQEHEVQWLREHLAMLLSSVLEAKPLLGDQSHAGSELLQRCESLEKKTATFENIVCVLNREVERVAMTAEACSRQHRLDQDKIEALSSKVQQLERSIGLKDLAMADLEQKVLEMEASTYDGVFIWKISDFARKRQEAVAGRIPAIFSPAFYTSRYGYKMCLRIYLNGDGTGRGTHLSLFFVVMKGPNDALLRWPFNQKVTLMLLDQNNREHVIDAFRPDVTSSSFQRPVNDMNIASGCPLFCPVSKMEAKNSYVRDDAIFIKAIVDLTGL

B1: traf2_out_14_149_1261 (protein)
chain: SATEKKKEALEKALKLFEELAKLLEEAIKAGSNDLDKEKLKKLVDEARKILKEQGFILGHLLAIEELLEKNKEFTKEDLEKLLELARRAAESLKVLREML
B2: traf2_out_20_3_2114 (protein)
chain: SELEKQLEEELEKAKKLLEEAAKLADPETAKVLKELAKELEESRSLSPTDRLVVVSEIRRRVLLLQQEAEKAGKKELAKVLAEAADALNRAMGLLMKIIE
B3: traf2_out_18_3_1917 (protein)
chain: SEEKRKEISEKIDEIVDEATAKAREALARGAAEHPEFRAEFERLRADLEAGAGPFGILEALAELFRRAGDEEEAEELEKFLEEKRKKLQELVDEYEKLLK
B4: traf2_out_20_38_2013 (protein)
chain: SEEEEEKKKEEELIKHAQEAYDKAEAWVAELKAAGLSVEEIAAAAKERVRALLTAHGLEEEAAELVADIDRVLDSPDAERLIVRILARAETLVFQKELQK
B5: traf2_out_17_178_1689 (protein)
chain: SKEEYRKKISELTDKLIDLTEKTGTELLEMARKDGTISEEELAALEEARRRGSNRTFLALAEKIVPKLKNSEEAQKLLEEFKKEARKLNKEIAEAYEKYE
B6: traf2_out_13_95_1221 (protein)
chain: SAEANEKLREISNEMLDRSEAVLAALREQLAPHPETAPDMDAIEAALRRQGIRAAIAQLRAAAARHPEVAALYEAAVAELEAIRREAGKRVAEVLKEDEE
B7: traf2_out_14_149_1233 (protein)
chain: SEEQKKLKAAAEINEEVAKTLEEVLKLLEEGKVEEAKKLLEKAIKELEEKGKKHGITISSLFELEEILELLEKNVEEAKKRAEEARDRAKNASEAFKEMA
B8: traf2_out_13_95_1153 (protein)
chain: SKELAEKIMEIADKMLDESLKVLEELLKIAKKKGKLVEEVTEAKHLAETRSINEAIHKLKELAKKYPEFKEELDKAIKELEELKRKAGKEVAELIKKEEE
B9: traf2_out_20_3_2062 (protein)
chain: SELEEELEEELERAEKLLEEAAKLADKETAARLKELLKRLRASRELSYDDRLVVLSEIRRELLELAEEARKRGDEELAKVLEEAAEELNEAMNLTYKIIE
B10: traf2_out_5_63_2347 (protein)
chain: SEREELTALAKKADKLAREILEAAEAGDEEKAEKLIEEAVKDPELARLVIGILKGEAKYYKLLGNKPEKAKIAEELAERLEKKVKEREEKKAKEAAKKAA
B11: traf2_out_18_167_1838 (protein)
chain: EEERLARRRELSDRLVELSELKREARAALLALETDPSTVPAELAALRAEAAKIPELAPLVDAAEAALAAGDRAALRAELEELIEEANRLANEVLAEYEAL
B12: traf2_out_12_187_969 (protein)
chain: SVEEELIRAAKEAIKAALKALKEAAPEDERFKEFLKELEALAKMLEEHPELAADATVAASLVLRAVRLFEAGAPQEEVDAAADAAAAEIAAVAKEAEALK
B13: traf2_out_13_95_1044 (protein)
chain: SKELAEKIMEIADEMEDRVLALLDAAAAQAADDPELRAVLEEARRLAETRGISEAIHLLREAAAAHPEHRALLEATIAELEAIRREAGRKVAELIKKEKE
B14: traf2_out_5_63_2349 (protein)
chain: SEREELTELARRADRAVRAALEAAKAGDEERLEAILEELVEDPELARTALGILKGLARYYELLGDKPEEAELARRLAERLEALMAEREAAEAAAAAAAAA
B15: traf2_out_6_156_2428 (protein)
chain: KVEEILKETLKEIEKLIKELAKASEEKKISYISKIAGTVYKALQKLKELGASVEEIKEFVEKVIKEAEELAKKAGLPESTINLLIGSLQAVGDVAIAEAK
B16: traf2_out_13_95_1042 (protein)
chain: SAELAEKIMEIADEMLDRTEALLAAAQAEAADDPEAVAVFDEARRLAVTKGISEAIALLRRFQEAHPEHAELAAATIEELEAIRREAGRKVAELIKKEKE
B17: traf2_out_17_162_1514 (protein)
chain: SALEEELAELEARLEELEKKLEEFEKKLENLKEMSKEELTDLLVEVSEARREARELAERLRKLKPEIGEERAEELIERAEEIAERLQRIANEIYKELEKK
B18: traf2_out_18_167_1892 (protein)
chain: SEELEKKREEASDRLVELSRARRAMRAVINAIDTDPAAAPAALAAAIAAVADDPETKAFLEAVAKQSLADQRAALEAKADELNKEANKAYEKLEELRKEL
B19: traf2_out_1_156_895 (protein)
chain: SAADKYAKELHEQLSKPEMRELLSRATDLIIRAKEVAEEAKKNPELKELRERAEKLLKEAKRLASRAINEGLKKKEEIQKELEKLEKELKKLEEELKKKL

Target: T1, TRAF2, Q12933
Assay: median log2 fold change of GCK-ALFA target abundance (FLAG IP / Myc IP barcode read proportion) (log2 ratio); each designed protein is fused to an ALFA-tag nanobody in HEK293 cells to bring the named protein to FLAG-tagged glucokinase (GCK); Myc marks an untargeted standard; higher = target protein stabilised (more abundant)
Settings: target protein: 3xFLAG-MCP-GCK-ALFA reporter; HEK293 landing pad (RPLP)
Description: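 LABEL-seq trans screen in HEK293 landing-pad cells. Each de novo designed 100-aa effector handle, binding the indicated effector (E3 ligase, DUB or autophagy protein), is fused to a constant NbALFA target handle and induced with 2 ug/mL doxycycline. A FLAG-MCP-GCK-ALFA target and a Myc-MCP standard reporter were transfected, and after 48 h circRNA barcodes were recovered by anti-FLAG and anti-Myc IP and sequenced. The value is the median across barcodes (at least 3 per design) of log2(FLAG/Myc read-proportion ratio), with the two transfection replicates pooled. Negative values mean degradation and positive values mean stabilisation of the target.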

Binder	median log2 fold change
B1	0.166
B2	0.267
B3	-0.139
B4	0.298
B5	0.194
B6	0.0973
B7	0.431
B8	-0.391
B9	0.219
B10	0.216
B11	0.25
B12	0.383
B13	-0.409
B14	-0.0109
B15	0.185
B16	-0.558
B17	0.34
B18	0.112
B19	-0.0191
